# This is one part of the list. At the low end of the ranking the order means little.
# Target: SIX1 homeodomain (reference allele) (UniProt Q15475)
# Assay: universal protein binding microarray
# Conditions: Universal all-10-mer PBM (8x60K, AMADID 030236), 300 nM GST-tagged protein, Alexa Fluor 488 anti-GST; buffer, salt, pH and temperature not stated; high values mean tight binding; most listed sequences are background and not binding sites; double strand, one strand shown
row,Sequence,binding signal [E-score]
1,AATTTGTG,0.118
2,GTGTGACA,0.139
3,CCTGACGC,-0.0282
4,CGTAGTTA,0.0451
5,CGGTAGCC,-0.0143
6,TTATTGAA,-0.163
7,ATCTGTCG,0.174
8,CCTTAGAG,0.0921
9,ATGTGTTA,-0.173
10,CAGCAAGA,-0.0298
11,AGACTCTA,-0.338
12,CCAGGTCG,0.00395
13,TACAAACA,-0.0533
14,GTGTGATA,0.411
15,CAAGGGTA,0.164
16,GCATCGGA,0.161
17,GGGAATAC,0.15
18,GCGTGTCC,0.0128
19,CCTTGCCG,-0.0987
20,CGGGCTCC,-0.209
21,ACTTGACG,-0.131
22,AGCGAAAG,-0.233

row,Sequence,binding signal [E-score]
1,ATACGCAT,0.349
2,AAAAGGTG,0.0163
3,GCAGCAGA,-0.0621
4,CCAATGCC,-0.252
5,AACTGGGG,0.135
6,GCTTGACC,-0.302
7,AAGCATAA,-0.242
8,TCCCGGAA,-0.0745
9,AGAAGATC,0.231
10,GGTATCAA,0.486
11,AGCTCTTA,-0.179
12,ACCATGTG,0.0442
13,CAAAGTGC,-0.37
14,CCAATTGC,-0.237
15,ACTGAGGC,-0.304
16,ATAACCAG,-0.0179
17,GGAATCAC,0.0922
18,ACTGTAAT,-0.0694
19,TGATGCCA,0.152
20,ACCCGGAA,0.184
21,AGAGACTG,-0.122
22,CTAGCAAG,-0.0469

row,Sequence,binding signal [E-score]
1,AAATCCCC,0.181
2,CTGGCGCC,-0.164
3,CGGGATAC,0.408
4,TCCGACGA,0.136
5,ATTGAATG,-0.00868
6,CCGTTGGC,-0.132
7,GCGGAGTA,0.228
8,CCTCTTTA,0.0511
9,CTGCAGCC,-0.133
10,CAAACTGC,-0.0918
11,GAGTTCAC,-0.108
12,ATACCTAC,0.385
13,CTCTTTCC,-0.225
14,CCGCTGTC,-0.0594
15,AGAGATGC,0.0241
16,GATACACC,0.469
17,GCAAGAAA,-0.124
18,TGGTTCAA,0.0778
19,GCGTCCCC,-0.0441
20,GATAATAC,0.406
21,GAGTGGGC,-0.259
22,CGCGGGAG,0.0168

row,Sequence,binding signal [E-score]
1,ATAATGGC,-0.0377
2,GCGCGCCA,-0.278
3,ACTGTTGG,-0.0843
4,CCTGGCAC,-0.2
5,CTATTCGA,-0.088
6,ACCCAGTG,-0.00211
7,CGAAGCCC,-0.106
8,AGAGGAAG,-0.0478
9,ATTAATCA,0.146
10,CCGCCGAC,-0.106
11,GGGATGAA,0.191
12,CAATCAGG,0.108
13,ACAACCCC,-0.0833
14,ATCATACA,0.306
15,CTGTGTGA,0.00741
16,ACGCGACG,-0.1
17,AGCTTAAC,-0.143
18,ATGTCATC,-0.129
19,ACCGGGGG,0.143
20,AGGATAGA,0.0755

# Source: publication PMC10668032
